In the supplement of paper PMC4604168 (melanoma cell lines) one finds cell count data, which are given here for 10 molecules.

The structures appear in SMILES notation. This is one part of the list. Single values are uncertain, as repeats are few or missing.

Among the test systems are G361; IPC-298; IST-MEL1; LB2518-MEL; LOXIMVI; MEL-HO; MZ2-MEL; MeWo; RPMI7951; RVH-421.
What all share (assay): cell count relative to DMSO control; melanoma cells; higher = more viable cells
Holding throughout (conditions): library dose: standard library concentration; 72 h
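Also: cells treated in 1,536-well plates, then fixed and DAPI-stained, with nuclei counted from automated high-throughput microscope images.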

As for `CCCS(=O)(=O)Nc1ccc(F)c(C(=O)c2c[nH]c3ncc(Cl)cc23)c1F` + N#Cc1c(O)c2c(-c3ccc(-c4ccccc4O)cc3)csc2[nH]c1=O [A769662] (first compound 0.4 µM, partner dose 10 µM), the cell count stood at 81.4% in the test on G361; 86.9% with IPC-298; 80.9% in the test on IST-MEL1; 94% with LB2518-MEL; 121% in the test on LOXIMVI; 80.8% in the test with MEL-HO. Besides, the cell count turned out to be 84.5% with MZ2-MEL, 106% in the test with MeWo, 113% in the test with RPMI7951 and 68.9% in the test with RVH-421.
As for `NC1(c2ccc(-c3nc4ccn5c(=O)[nH]nc5c4cc3-c3ccccc3)cc2)CCC1` + COc1cc2c(Oc3ccc4[nH]c(C)cc4c3F)ncnc2cc1OCCCN1CCCC1 [cediranib] (first compound 2 µM, partner dose 2 µM), the cell count came out at 84.8% with G361; 111% in the test on IPC-298; 80.5% with IST-MEL1; 87.6% with LB2518-MEL; 62.2% with LOXIMVI; 77.5% with MEL-HO. In addition, the cell count with MZ2-MEL worked out at 98.4%; with MeWo, 79.9%; in the test on RPMI7951, 93.3%; in the test with RVH-421, 70%.
In the case of `C=C(c1ccc(C(=O)O)cc1)c1cc2c(cc1C)C(C)(C)CCC2(C)C` [Bexarotene] + Cc1cc(N2CCOCC2)cc2[nH]c(-c3c(NC[C@@H](O)c4cccc(Cl)c4)cc[nH]c3=O)nc12 [BMS536924] (first compound 10 µM, partner dose 1 µM), the cell count in the test with G361 worked out at 85.8%; in the test on IPC-298, 92.8%; with IST-MEL1, 76%; in the test on LB2518-MEL, 99.7%; in the test on LOXIMVI, 88.9%; with MEL-HO it was 86.8%. Further, the cell count in the test on MZ2-MEL came to 108%; with MeWo, 74.8%; in the test with RPMI7951 it was 96.2%; in the test on RVH-421, 92%.
As for `CS(=O)(=O)c1ccc(C(=O)Nc2ccc(Cl)c(-c3ccccn3)c2)c(Cl)c1` [vismodegib] + Clc1ccc(Nc2nnc(Cc3ccncc3)c3ccccc23)cc1 [vatalanib] (first compound 5 µM, partner dose 10 µM), the cell count turned out to be 83.4% in the test with G361; 76.3% in the test with IPC-298; 72.7% with IST-MEL1; 68.7% in the test with LB2518-MEL; 75.2% in the test with LOXIMVI; 53.8% in the test on MEL-HO. Moreover, the cell count in the test on MZ2-MEL was found to be 76.4%; in the test on MeWo it was 60.2%; in the test on RPMI7951 it was 74.3%; in the test on RVH-421 it was 73.8%.
On to `C=C(c1ccc(C(=O)O)cc1)c1cc2c(cc1C)C(C)(C)CCC2(C)C` [Bexarotene] + Cc1cc([N+](=O)[O-])ccc1NS(=O)(=O)c1cc(Cl)ccc1Cl [FH535] (first compound 10 µM, partner dose 5 µM), for which the cell count in the test on G361 was determined as 42.7%; in the test with IPC-298 it was 51.1%; in the test on IST-MEL1 it was 72.2%; in the test on LB2518-MEL, 82.4%; in the test with LOXIMVI, 57.2%; in the test with MEL-HO it was 50.8%. Also, the cell count in the test with MZ2-MEL is 70.4%; in the test with MeWo it was 82.1%; in the test on RPMI7951, 85.1%; in the test on RVH-421 it was 70.7%.
Turning to `CS(=O)(=O)c1ccc(C(=O)Nc2ccc(Cl)c(-c3ccccn3)c2)c(Cl)c1` [vismodegib] + CCN(CC)CCNC(=O)c1c(C)[nH]c(/C=C2\C(=O)Nc3ccc(F)cc32)c1C [sunitinib] (first compound 5 µM, partner dose 2 µM), the cell count with G361 was determined as 65.7%; with IPC-298 it was 71.3%; in the test with IST-MEL1, 107%; in the test on LB2518-MEL, 61.3%; in the test with LOXIMVI, 118%; in the test with MEL-HO, 95.5%. The cell count in the test on MZ2-MEL worked out at 91.8%; with MeWo it was 56.8%; in the test on RPMI7951 it was 80.9%; in the test on RVH-421, 74.7%.
As to `CS(=O)(=O)c1ccc(C(=O)Nc2ccc(Cl)c(-c3ccccn3)c2)c(Cl)c1` [vismodegib] + C=CCn1c(=O)c2cnc(Nc3ccc(N4CCN(C)CC4)cc3)nc2n1-c1cccc(C(C)(C)O)n1 [MK1775] (first compound 5 µM, partner dose 0.1 µM), the cell count in the test with G361 was 64.8%; in the test with IPC-298, 84.2%; in the test on IST-MEL1 it was 87%; with LB2518-MEL it was 54.9%; in the test with LOXIMVI, 85.5%; with MEL-HO, 98.2%. For the same molecule, the cell count came out at 102% in the test with MZ2-MEL, 72.5% with MeWo, 55.2% in the test with RPMI7951 and 95.1% in the test on RVH-421.
`CN(c1ncccc1CNc1nc(Nc2ccc3c(c2)CC(=O)N3)ncc1C(F)(F)F)S(C)(=O)=O` + O=C(CCCCCCC(=O)Nc1ccccc1)NO [vorinostat] (first compound 0.4 µM, partner dose 0.4 µM): the cell count is 59.8% in the test on G361; 82.2% in the test with IPC-298; 84.2% with IST-MEL1; 78.7% in the test on LB2518-MEL; 63.2% in the test on LOXIMVI; 83% in the test on MEL-HO. Moreover, the cell count in the test on MZ2-MEL is 101%; in the test with MeWo it was 86.1%; in the test on RPMI7951, 67.5%; in the test on RVH-421 it was 86.5%.
For the molecule `CS(=O)(=O)c1ccc(C(=O)Nc2ccc(Cl)c(-c3ccccn3)c2)c(Cl)c1` [vismodegib] + CC1(C)NC(=O)N(c2ccc([N+](=O)[O-])c(C(F)(F)F)c2)C1=O [nilutamide] (first compound 5 µM, partner dose 5 µM), the cell count with G361 was 110%; in the test with IPC-298 it was 97.5%; in the test with IST-MEL1, 93.1%; in the test on LB2518-MEL, 85.7%; in the test with LOXIMVI, 114%; with MEL-HO, 92.7%. Further, the cell count with MZ2-MEL worked out at 116%; in the test on MeWo it was 102%; in the test on RPMI7951, 105%; in the test on RVH-421, 111%.
`CCCS(=O)(=O)Nc1ccc(F)c(C(=O)c2c[nH]c3ncc(Cl)cc23)c1F` + O=C(O)C(=O)Nc1sc2c(c1C(=O)O)CCNC2 [TCS401] (first compound 0.4 µM, partner dose 8.33333 µM): the cell count with G361 stood at 69.6%; with IPC-298, 75.6%; in the test with IST-MEL1, 84.3%; in the test with LB2518-MEL, 101%; with LOXIMVI, 84.9%; in the test with MEL-HO, 65.6%. Moreover, the cell count worked out at 92.1% with MZ2-MEL, 89% with MeWo, 95.1% with RPMI7951 and 90.4% in the test on RVH-421.
